# Measured values from PubChem BioAssay (Tox21).
# The inconclusive results got no clear call from the source; some entries with a clear call stand among them for comparison. For some of these results: Potencies of inconclusive entries are left out as doubtful fits. Active and inactive are the calls of the source. Unless noted, the call rests on the fitted dose curve; in most records, active means well fitted curve in the direction sought with a large enough effect in the repeat runs; inconclusive means weak or mixed curves; inactive means no such curve, though single readings can be large; an effect the other way counts as inactive or inconclusive.
# How the values were obtained:
# [1] = target: Glucocorticoid receptor (Homo sapiens) (UniProt P04150); assay: qHTS assay to identify small molecule agonists of the glucocorticoid receptor (GR) signaling pathway (AID 720691; active means well fitted activation curve with a large enough effect in the signal ratio in the repeat runs, not every such curve was filed as active; inconclusive means weak or mixed curves, or effect the other way; inactive means no such curve, though single readings can be large or run the other way; the % refers to the signal ratio; further: on the % scale 0 is the no-effect control and ±100 the full control effect); details: GR-bla HeLa, beta-lactamase reporter ratio, 18 h; activation: at 62.4 µM (top of the series) unless noted
# Sequence of UniProt P04150 (P04150 whole entry, looked up): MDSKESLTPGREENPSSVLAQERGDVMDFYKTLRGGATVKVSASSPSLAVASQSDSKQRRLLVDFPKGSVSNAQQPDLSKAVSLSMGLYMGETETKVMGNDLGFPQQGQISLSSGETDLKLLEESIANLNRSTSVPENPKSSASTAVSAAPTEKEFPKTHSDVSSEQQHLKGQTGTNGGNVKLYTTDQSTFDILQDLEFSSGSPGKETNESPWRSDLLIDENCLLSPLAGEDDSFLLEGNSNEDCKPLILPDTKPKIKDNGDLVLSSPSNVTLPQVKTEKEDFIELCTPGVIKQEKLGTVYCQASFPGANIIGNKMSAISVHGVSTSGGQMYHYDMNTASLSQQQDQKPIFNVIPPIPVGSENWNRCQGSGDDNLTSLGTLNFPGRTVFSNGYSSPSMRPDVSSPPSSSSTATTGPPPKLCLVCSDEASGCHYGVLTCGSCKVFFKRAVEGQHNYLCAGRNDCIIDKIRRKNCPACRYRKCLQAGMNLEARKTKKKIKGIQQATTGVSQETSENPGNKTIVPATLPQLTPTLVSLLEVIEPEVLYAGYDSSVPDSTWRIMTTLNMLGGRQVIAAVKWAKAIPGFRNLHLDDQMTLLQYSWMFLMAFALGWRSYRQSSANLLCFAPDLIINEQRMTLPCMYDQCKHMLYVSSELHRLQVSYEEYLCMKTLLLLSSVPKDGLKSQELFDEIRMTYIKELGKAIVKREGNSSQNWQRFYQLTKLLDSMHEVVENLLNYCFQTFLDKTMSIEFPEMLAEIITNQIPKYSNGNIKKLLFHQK
# Method in brief: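 Reporter read-out: fluorescence intensity following 2 h room-temperature LiveBLAzer B/G FRET substrate loading. Prior step: GR-bla HeLa cells held 4 h, then treated 18 h at 37 C.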
# [2] = qHTS assay for identifying genotoxic compounds that show differential cytotoxicity against isogenic chicken DT40 cell lines with known DNA damage response pathways - Rad54/Ku70 mutant cell line (AID 743015); details: DT40 Rad54/Ku70 mutant viability, CellTiter-Glo, 40 h; activity change, negative = cytotoxicity: at 66.8 µM (top of the series) unless noted; further: potency means the concentration at half of the fitted maximal effect; nearly all actives have a fitted effect of over 60% in size
# [3] = target: Bile acid receptor (Homo sapiens) (UniProt Q96RI1); assay: qHTS assay to identify small molecule antagonists of the farnesoid-X-receptor (FXR) signaling pathway (AID 743217; active means well fitted inhibition curve with a large enough effect in the signal ratio in the repeat runs, not every such curve was filed as active; inconclusive means weak or mixed curves, or effect the other way; inactive means no such curve, though single readings can be large or run the other way; the % refers to the signal ratio; further: potency means the concentration at half of the fitted maximal effect); details: HEK293T FXR-UAS-bla, beta-lactamase ratio, CDCA-stimulated, 16 h; activity change, negative = inhibition: at 62.6 µM (top of the series) unless noted
# Sequence of UniProt Q96RI1 (Q96RI1 whole entry, looked up): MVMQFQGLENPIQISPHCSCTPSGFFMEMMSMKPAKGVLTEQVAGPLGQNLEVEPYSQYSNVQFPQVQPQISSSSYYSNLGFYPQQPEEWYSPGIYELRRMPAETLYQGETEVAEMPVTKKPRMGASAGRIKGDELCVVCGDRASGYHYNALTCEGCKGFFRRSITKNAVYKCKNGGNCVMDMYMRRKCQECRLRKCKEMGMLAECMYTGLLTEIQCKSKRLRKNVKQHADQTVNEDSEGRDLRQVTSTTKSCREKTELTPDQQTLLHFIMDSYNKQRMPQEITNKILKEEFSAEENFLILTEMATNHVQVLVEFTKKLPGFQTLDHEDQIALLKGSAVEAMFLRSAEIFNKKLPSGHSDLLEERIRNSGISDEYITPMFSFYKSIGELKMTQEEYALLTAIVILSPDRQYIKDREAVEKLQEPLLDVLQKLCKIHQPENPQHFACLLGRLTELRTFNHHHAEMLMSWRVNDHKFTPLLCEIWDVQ
# Method in brief: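 In this cell-based antagonist screen, inhibition of CDCA-driven (50 uM final) UAS-beta-lactamase expression in HEK 293T cells was measured by FRET fluorescence following 16 h compound exposure at 37 °C.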
# [4] = qHTS assay to identify small molecule antagonists of the peroxisome proliferator-activated receptor gamma (PPARg) signaling pathway - cell viability counter screen (AID 743194); details: PPARg-bla HEK293H viability, CellTiter-Glo luminescence, 17 h, co-treated with 50 nM rosiglitazone; activity change, negative = cytotoxicity: at 62.6 µM (top of the series) unless noted; further: nearly all actives have a fitted effect of over 55% in size; further: potency means the concentration at half of the fitted maximal effect
# Method in brief: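 PPARg-UAS-bla HEK293H cells were plated, rested 5 h at 37 C, then treated with compounds plus rosiglitazone (50 nM final) for 17 h at 37 C; viability was then read by CellTiter-Glo luminescence after 30 min at room temperature.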
# [5] = qHTS assay to identify small molecule agonists of the vitamin D receptor (VDR) signaling pathway - cell viability counter screen (AID 743224); further: nearly all actives have a fitted effect of over 50% in size; further: potency means the concentration at half of the fitted maximal effect
# Method in brief: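 Here cell health was gauged by luminescent ATP detection (CellTiter-Glo, 30 min RT) in VDR-bla cells that had been incubated with test compounds for 16 h at 37C and 5% CO2.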
# [6] = qHTS RealTime-Glo MT Cell Viability Assay in HEK293 cells - 16 hour (AID 1224872); further: nearly all actives have a fitted effect of over 50% in size; further: potency means the concentration at half of the fitted maximal effect
# Method in brief: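 Viability tracked continuously by luminescence as live cells reduce a prosubstrate for NanoLuc; HEK293 cells preincubated 5 h, compound-treated at 37 C, and read at 0, 8, 16, 24, 32 and 40 h.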
# [7] = qHTS RealTime-Glo MT Cell Viability Assay in HEK293 cells - 40 hour (AID 1224874); details: RealTime-Glo luminescence; max response: hits give low values; further: nearly all actives have a fitted effect of over 50% in size; further: potency means the concentration at half of the fitted maximal effect
# Method in brief: (§1)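 Tox21 screen in HEK293 using RealTime-Glo MT chemistry, with cells and reagent co-dispensed. Luminescence proportional to viable cell number was captured at intervals during 40 h compound exposure at 37 C.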
# [8] = qHTS RealTime-Glo MT Cell Viability Assay in HEK293 cells - 8 hour (AID 1224887); further: potency means the concentration at half of the fitted maximal effect; nearly all actives have a fitted effect of over 50% in size
# Method in brief: as §1
# [9] = qHTS assay to identify small molecule agonists of the hypoxia (HIF-1) signaling pathway (AID 1224846; active means well fitted activation curve with a large enough effect in the signal ratio in the repeat runs, not every such curve was filed as active; inconclusive means weak or mixed curves; the % refers to the signal ratio; further: on the % scale 0 is the no-effect control and ±100 the full control effect); details: HRE-bla ME-180 cells, beta-lactamase ratio, 17 h; activation: at 76.8 µM (top of the series) unless noted
# Method in brief: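 Hypoxia-pathway activation was scored as increased beta-lactamase from an HRE-controlled reporter in ME-180 cells; plated at 2,000 cells per well with 0.5% dialyzed FBS, they were exposed 17 hrs to compounds and then given CCF4-AM.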
# [10] = qHTS assay to identify small molecule antagonists of the TGF-beta/Smad signaling pathway (AID 1346924; active means well fitted inhibition curve with a large enough effect in the signal ratio in the repeat runs, not every such curve was filed as active; inconclusive means weak or mixed curves; the % refers to the signal ratio); details: SBE-bla HEK293T, TGF-beta/Smad reporter, beta-lactamase ratio; activity, negative = inhibition: at 76.8 µM (top of the series) unless noted
# Method in brief: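 SBE-bla HEK 293T cells were plated overnight, then received compound in DMSO plus TGF-beta1 (added as a 0.25 ng/mL solution) and were incubated 5 h at 37 C. Beta-lactamase reporter activity was read after 2 h at room temperature with LiveBLAzer B/G FRET substrate (ex 405, em 460/530 nm).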
# [11] = qHTS assay to identify small molecule antagonists of the peroxisome proliferator-activated receptor delta (PPARd) signaling pathway - cell viability counter screen (AID 743213); details: PPARd-bla HEK293H viability, CellTiter-Glo luminescence, 17 h; viability change, negative = cytotoxic: at 62 µM (top of the series) unless noted; further: nearly all actives have a fitted effect of over 50% in size; further: potency means the concentration at half of the fitted maximal effect
# Method in brief: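 Cytotoxicity counter screen: CellTiter-Glo luminescence read 30 min after addition, in the same wells as the reporter assay. There, PPARd UAS-bla HEK293H cells (3000/well) were treated 17 h at 37 C with compound and 300 nM L165041.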
# [12] = qHTS assay to identify small molecule antagonists of the estrogen related receptor signaling pathway with the pleiotropic PPARgamma coactivator (PGC) from Tox21 10K library (AID 1224841; call rule not given here; further: potency means the concentration at half of the fitted maximal effect)
# Method in brief: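 Each well held 2,000 PGC/ERR cells, pre-incubated six hours (37 C, 5% CO2). Test substances in DMSO were added by pin tool and left for 18 h at 37 C before luciferase detection by One-Glo.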
# [13] = qHTS assay to identify aromatase inhibitors - cell viability counter screen (AID 743084); details: MCF-7 aro ERE viability, CellTiter-Fluor, 24 h; activity change, negative = cytotoxicity: at 70.3 µM (top of the series) unless noted;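 further: cells stimulated with testosterone during compound exposure; potency means the concentration at half of the fitted maximal effect; nearly all actives have a fitted effect of over 55% in size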
# [14] = qHTS assay to identify small molecule antagonists of the androgen receptor (AR) signaling pathway - cell viability counter screen (AID 743033; further: on the % scale 0 is the no-effect control and ±100 the full control effect; nearly all actives have a fitted effect of over 45% in size); details: AR-bla HEK293 viability, CellTiter-Glo luminescence, 16 h; activity change, negative = cytotoxicity: at 58.5 µM (top of the series) unless noted
# [15] = qHTS assay to identify small molecule antagonists of the androgen receptor (AR) signaling pathway using the MDA cell line - cell viability counter screen (AID 743041; further: nearly all actives have a fitted effect of over 45% in size; further: potency means the concentration at half of the fitted maximal effect); details: MDA-kb2 viability, CellTiter-Fluor, 16 h, cells co-treated with R1881 androgen agonist; viability change, negative = cytotoxic: at 70.3 µM (top of the series)
# Method in brief: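 Viability counter screen run alongside the AR antagonist reporter: cells seeded 5 h before compound, R1881 added, 16 h incubation at 37C without CO2, fluorescent CellTiter-Fluor signal quantified.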
# [16] = target: Androgen receptor (Homo sapiens) (UniProt P10275); assay: qHTS assay to identify small molecule agonists of the androgen receptor (AR) signaling pathway (AID 743036; active means well fitted activation curve with a large enough effect in the signal ratio in the repeat runs, with a control signal flat, not every such curve was filed as active; inconclusive means weak or mixed curves, or effect the other way; inactive means no such curve, though single readings can be large or run the other way; the % refers to the signal ratio; further: potency means the concentration at half of the fitted maximal effect); details: HEK293 AR-UAS-bla GripTite, beta-lactamase FRET ratio, 16 h; activation: at 62.4 µM (top of the series) unless noted
# Sequence of UniProt P10275 (P10275 whole entry, looked up): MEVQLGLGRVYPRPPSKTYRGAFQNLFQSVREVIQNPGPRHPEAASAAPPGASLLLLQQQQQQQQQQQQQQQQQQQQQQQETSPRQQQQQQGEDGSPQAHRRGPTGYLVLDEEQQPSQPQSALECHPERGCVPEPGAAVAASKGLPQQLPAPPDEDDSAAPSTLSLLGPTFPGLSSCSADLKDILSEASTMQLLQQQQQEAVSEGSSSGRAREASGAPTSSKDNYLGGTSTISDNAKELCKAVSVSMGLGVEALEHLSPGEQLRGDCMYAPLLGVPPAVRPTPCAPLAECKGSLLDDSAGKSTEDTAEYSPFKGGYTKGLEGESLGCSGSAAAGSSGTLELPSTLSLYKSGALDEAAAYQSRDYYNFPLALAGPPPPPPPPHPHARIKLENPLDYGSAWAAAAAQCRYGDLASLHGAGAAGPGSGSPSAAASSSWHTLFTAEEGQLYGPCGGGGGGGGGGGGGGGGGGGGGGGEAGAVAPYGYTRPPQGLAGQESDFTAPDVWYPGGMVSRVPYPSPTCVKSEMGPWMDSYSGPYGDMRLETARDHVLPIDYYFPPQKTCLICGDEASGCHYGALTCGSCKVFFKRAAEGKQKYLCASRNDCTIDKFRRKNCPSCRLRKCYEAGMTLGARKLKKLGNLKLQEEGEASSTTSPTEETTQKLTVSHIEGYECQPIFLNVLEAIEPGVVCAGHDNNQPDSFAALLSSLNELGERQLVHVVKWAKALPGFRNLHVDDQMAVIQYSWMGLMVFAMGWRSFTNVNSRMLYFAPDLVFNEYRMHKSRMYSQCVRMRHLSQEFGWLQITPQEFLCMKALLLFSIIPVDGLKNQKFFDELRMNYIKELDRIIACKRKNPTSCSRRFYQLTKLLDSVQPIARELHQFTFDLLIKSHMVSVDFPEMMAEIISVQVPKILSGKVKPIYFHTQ
# Method in brief: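 Fluorescence from a beta-lactamase FRET substrate served as read-out in AR-UAS-bla GripTite HEK293 cells. Cells were treated with DMSO-dissolved compounds for 16 h at 37C, then with LiveBLAzer B/G substrate for 2 h at room temperature.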
# [17] = tested on: thyroid hormone receptor (rat, GH3 cells); assay: qHTS assay to identify small molecule agonists of the thyroid receptor (TR) signaling pathway (AID 743066; calls by dose curve; further: on the % scale 0 is the no-effect control and ±100 the full control effect); details: GH3.TRE-Luc cells, TR agonist luciferase, 24 h; activation: at 83.9 µM (top of the series) unless noted
# [18] = qHTS assay to identify small molecule that activate the aryl hydrocarbon receptor (AhR) signaling pathway - cell viability counter screen (AID 743086); further: potency means the concentration at half of the fitted maximal effect; nearly all actives have a fitted effect of over 45% in size
# Method in brief: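 HepG2-AhR-luc (HG2L7.5c1) cells, 4000/well, were preincubated 5 h at 37C, exposed to compound in qHTS format for 24 hr at 37C, then given CellTiter-Fluor for 30 min; viability was read as fluorescence in the reporter wells.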
# [19] = qHTS assay to identify small molecule antagonists of the sonic hedgehog signaling (Shh) pathway (AID 1259369; calls by dose curve; further: nearly all actives have a fitted effect of over 45% in size; further: potency means the concentration at half of the fitted maximal effect)
# Method in brief: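 Conditioned medium drives Shh signalling in 3T3Gli1-Luc cells; compounds in DMSO co-applied, 24hr at 37 C, then luciferase luminescence.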
# [20] = target: Androgen receptor (Homo sapiens) (UniProt P10275); assay: qHTS assay to identify small molecule antagonists of the androgen receptor (AR) signaling pathway (AID 743035; active means well fitted inhibition curve with a large enough effect in the signal ratio in the repeat runs, not every such curve was filed as active; inconclusive means weak or mixed curves, or effect the other way; inactive means no such curve, though single readings can be large or run the other way; the % refers to the signal ratio; further: on the % scale 0 is the no-effect control and ±100 the full control effect); details: HEK293 AR-UAS-bla, R1881-stimulated, beta-lactamase FRET, 16 h; activity change, negative = inhibition: at 58.5 µM (top of the series) unless noted
# Method in brief: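 Using qHTS, AR-UAS-bla GripTite HEK293 cells received compound, then R1881, and were cultured 16 h at 37C/5% CO2 before a 2 h room-temperature LiveBLAzer B/G FRET substrate step and fluorescence measurement.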
# Tags describe the fitted curve by direction and shape or compound fluorescence and quenching.
compound,measurement,setting,value
O=C(O)C(S)C(S)C(=O)O (centres undefined),activation,[1],inconclusive: 13.5% [phenotype inactive]
same,Potency,[2],"inconclusive [cytotoxic, partial curve]"
CO[Si](CCCNCCC[Si](OC)(OC)OC)(OC)OC,"activity change, negative = inhibition",[3],inconclusive: 1.89%
Oc1ccccc1Cc1ccccc1O,Potency,[2],"inconclusive [cytotoxic, full curve]"
same,"activity change, negative = cytotoxicity",[4],inconclusive: -36.2% [cytotoxic]
same,Potency,[5],"inconclusive [cytotoxic, partial curve]"
same,Potency,[6],"inconclusive [cytotoxic, partial curve, poor fit]"
same,Potency,[7],"inconclusive [cytotoxic, partial curve]"
same,Potency,[8],"inconclusive [cytotoxic, partial curve]"
CCCCC(CC)COC(=O)COc1ccc(Cl)cc1Cl (centres undefined),Potency,[1],inactive
same,Potency,[4],inactive
same,Potency,[9],inactive
same,Potency,[6],inactive
same,"activity, negative = inhibition",[10],inconclusive: -4.9%
Cc1c(C(C)C)c(=O)n(-c2ccccc2)n1C,Potency,[11],"inconclusive [cytotoxic, single point]"
same,Potency,[12],"inconclusive [falling, full curve, poor fit]"
O=[N+]([O-])c1cccc(Cl)c1Cl,Potency,[13],"inconclusive [cytotoxic, single point]"
same,Potency,[4],"inconclusive [cytotoxic, full curve, poor fit]"
FC(F)(F)/C(=N\OCC1OCCO1)c1ccc(Cl)cc1,Potency,[14],inactive
same,Potency,[15],"inconclusive [rising, partial curve, poor fit]"
same,"activity, negative = inhibition",[10],inconclusive: 1.17%
Cc1nnc(NS(=O)(=O)c2ccc(N)cc2)s1,Potency,[16],inactive
CN1CCN(c2c(F)cc3c(=O)c(C(=O)O)cn4c3c2SCC4)CC1,Potency,[3],inactive
CC(C)=CCOC(=O)c1ccccc1,Potency,[9],inactive
FC(F)(F)C(F)(F)C(F)(F)C(F)(F)C(F)(F)C(F)(F)CCI,Potency,[11],inactive
Cc1ccc2c(c1)c1c3n2CCNC3CCC1 (centres undefined),activation,[17],inconclusive: -6.05% [phenotype inactive]
same,Potency,[18],"inconclusive [falling, full curve, poor fit]"
same,Potency,[11],"inconclusive [cytotoxic, full curve, poor fit]"
same,Potency,[6],inactive
[O]=[Mo](=[O])=[O],Potency,[6],"inconclusive [cytotoxic, single point]"
same,Potency,[8],"inconclusive [cytotoxic, single point]"
same,"activity change, negative = inhibition",[19],inactive: -0.431% [at 19 µM]
CCCCC1CCC(O)CC1 (centres undefined),Potency,[20],inactive
O=C(O)CCCCCC(=O)O,Potency,[14],inactive
same,Potency,[15],inactive
same,Potency,[4],"inconclusive [cytotoxic, single point]"
same,max response,[7],inactive: 0.774%
CC(NC(CCc1ccccc1)C(=O)O)C(=O)N1C(=O)N(C)CC1C(=O)O (centres undefined),Potency,[5],inactive
same,Potency,[12],inactive
CCCCCCCCCCCC,Potency,[2],"inconclusive [cytotoxic, partial curve, poor fit]"
same,Potency,[19],"inconclusive [inhibitor, single point]"
C[C@@H]1CN(c2c(F)c(F)c3c(=O)c(C(=O)O)cn(C4CC4)c3c2F)C[C@H](C)N1,Potency,[16],"inconclusive [activator, partial curve, poor fit]"
same,Potency,[3],"inconclusive [activator, full curve, poor fit]"
same,Potency,[5],inactive
CCN(Cc1cccc(S(=O)(=O)O)c1)c1ccccc1,"activity, negative = inhibition",[10],inconclusive: -0.791%
CC[N+](C)(CC)CC,Potency,[17],inactive
O=C(O)/C=C/c1ccccc1,Potency,[1],inactive
same,Potency,[14],inactive
O=C1C(N(CO)C(=O)NCO)N(CO)C(=O)N1CO (centres undefined),Potency,[5],inactive
